PubChem BioAssay (Tox21)
Where “and” joins values, the source holds several entries; their conditions need not be identical. Identical values can stand only once. Inconclusive results, whose numbers are uncertain, are shown with a selection of clear calls. For some assays here: Potencies beside an inconclusive call are fits to weak or partial responses and may not hold up. Where a structure was tested more than once in an assay, its records may differ in their call. Calls of active or inactive are those of the source. Unless noted, calls follow the shape of the dose curve; as a rule, active = well fitted curve in the direction sought with a large enough effect in the repeat runs; inconclusive = weak or mixed curves; inactive = no such curve, though single readings can be large; an effect the other way counts as inactive or inconclusive.

What was measured:
[1] = qHTS assay to identify small molecule agonists of the TGF-beta/Smad signaling pathway - cell viability counter screen (AID 1346829); settings: SBE-bla HEK293T viability, CellTiter-Glo luminescence, 5 h; series mostly up to 76.8 µM; also: nearly all actives have a fitted effect of over 45% in size; also: potency is read from the fitted curve at half-maximal effect
Procedure, shortened: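 Compound-treated SBE-bla HEK 293T cells (5 hr, 37 C) were assessed for viability with CellTiter-Glo in parallel with the reporter read.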

[2] = qHTS assay to identify small molecule agonists of the TGF-beta/Smad signaling pathway (AID 1346859; active = well fitted activation curve with a large enough effect in the signal ratio in the repeat runs, not every such curve was filed as active; inconclusive = weak or mixed curves; the % refers to the signal ratio; also: potency is read from the fitted curve at half-maximal effect; as to activation: % is scaled to controls: 0 for no effect and ±100 for the full control effect); settings: SBE-bla HEK293T, TGF-beta/Smad beta-lactamase reporter, 5 h; activation: at 76.8 µM (top of the series) unless noted
Procedure, shortened: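 SBE-bla HEK 293T, 4,000 cells/well, plated o/n; cpd in DMSO, 5 hr, 37 C/5% CO2; B/G FRET substrate 2 hr RT; ex 405, em 460/530 nm.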

[3] = qHTS assay to identify small molecule antagonists of the TGF-beta/Smad signaling pathway (AID 1346924; active = well fitted inhibition curve with a large enough effect in the signal ratio in the repeat runs, not every such curve was filed as active; inconclusive = weak or mixed curves; the % refers to the signal ratio; also: potency is read from the fitted curve at half-maximal effect); settings: SBE-bla HEK293T, TGF-beta/Smad reporter, beta-lactamase ratio; activity, negative = inhibition: at 76.8 µM (top of the series) unless noted
Procedure, shortened: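 SBE-bla HEK 293T cells were plated overnight, then received compound in DMSO plus TGF-beta1 (added as a 0.25 ng/mL solution) and were incubated 5 h at 37 C. Beta-lactamase reporter activity was read after 2 h at room temperature with LiveBLAzer B/G FRET substrate (ex 405, em 460/530 nm).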

[4] = Caspase-3/7 induction in HepG2 cells by small molecules, qHTS cell viability counter screen (AID 1346981); settings: CellTiter-Fluor fluorescence, 17 h; series mostly up to 92.4 µM; also: potency is read from the fitted curve at half-maximal effect; nearly all actives have a fitted effect of over 30% in size
Procedure, shortened: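 Multiplexed with the caspase-3/7 assay: HepG2 cells, 16 hr compound treatment, CellTiter-Fluor viability detection by fluorescence.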

[5] = target: Nuclear receptor subfamily 1 group I member 2 (Homo sapiens) (UniProt O75469); assay: Human pregnane X receptor (PXR) small molecule agonists, qHTS assay (AID 1346982); settings: PXR-Luc HepG2, CYP3A4 luciferase reporter, 24 h; series mostly up to 92.4 µM; also: potency is read from the fitted curve at half-maximal effect; nearly all actives have a fitted effect of over 35% in size
UniProt O75469, sequence (O75469 whole entry, looked up): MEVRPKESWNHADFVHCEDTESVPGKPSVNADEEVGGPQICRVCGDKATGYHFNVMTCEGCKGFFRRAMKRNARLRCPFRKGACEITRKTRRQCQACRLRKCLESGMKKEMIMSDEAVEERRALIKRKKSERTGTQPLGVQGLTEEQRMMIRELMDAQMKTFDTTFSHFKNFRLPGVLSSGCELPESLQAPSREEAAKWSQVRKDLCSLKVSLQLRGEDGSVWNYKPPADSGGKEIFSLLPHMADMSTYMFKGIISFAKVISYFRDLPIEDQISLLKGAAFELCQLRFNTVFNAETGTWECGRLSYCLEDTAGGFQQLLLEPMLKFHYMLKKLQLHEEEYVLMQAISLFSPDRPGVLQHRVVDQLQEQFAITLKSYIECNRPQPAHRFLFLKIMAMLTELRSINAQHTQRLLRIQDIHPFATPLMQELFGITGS
Procedure, shortened: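 We seeded PXR-Luc HepG2 cells in assay medium containing 5% charcoal-stripped FBS, added compounds 5 hr later, incubated 24 hr, and read luminescence with ONE-Glo reagent.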

[6] = target: Cytochrome P450 2D6 (Homo sapiens) (UniProt P10635); assay: Cytochrome P450 Family 2 Subfamily D Member 6 (CYP2D6) small molecule antagonists: luciferase reporter qHTS assay (AID 1671196); settings: P450-Glo CYP2D6 enzyme assay, luciferin luminescence, 1 h; series mostly up to 115 µM; also: nearly all actives have a fitted effect of over 50% in size; also: potency is read from the fitted curve at half-maximal effect
UniProt P10635, sequence (P10635 whole entry, looked up): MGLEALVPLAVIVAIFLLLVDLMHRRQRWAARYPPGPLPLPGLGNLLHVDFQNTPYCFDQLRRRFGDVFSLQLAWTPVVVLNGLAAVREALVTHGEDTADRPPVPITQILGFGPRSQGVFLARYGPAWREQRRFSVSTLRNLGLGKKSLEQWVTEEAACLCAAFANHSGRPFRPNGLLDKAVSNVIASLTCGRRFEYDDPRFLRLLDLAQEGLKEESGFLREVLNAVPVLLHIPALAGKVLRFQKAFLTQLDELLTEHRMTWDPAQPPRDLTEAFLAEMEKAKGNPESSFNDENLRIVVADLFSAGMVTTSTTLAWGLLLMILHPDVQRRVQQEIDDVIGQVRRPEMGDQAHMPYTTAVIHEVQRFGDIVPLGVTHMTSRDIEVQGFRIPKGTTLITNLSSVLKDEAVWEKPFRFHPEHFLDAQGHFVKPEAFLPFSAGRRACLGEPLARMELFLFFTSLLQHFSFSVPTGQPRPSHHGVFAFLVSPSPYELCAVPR
Procedure, shortened: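 Luminescence (RLU), read 20 min after detection reagent, indicated CYP2D6 conversion of proluciferin to luciferin during a 1 h NADPH-dependent reaction at room temperature.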

[7] = Human pregnane X receptor (PXR) small molecule agonists, qHTS cell viability counter screen (AID 1346977); settings: PXR-Luc HepG2 viability, CellTiter-Fluor, 24 h; series mostly up to 92.4 µM; also: nearly all actives have a fitted effect of over 50% in size; also: potency is read from the fitted curve at half-maximal effect
Procedure, shortened: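 PXR-Luc HepG2, 2,000 cells/well, 5% charcoal-stripped FBS; 5hr settle; cpd 24hr, 37C/5% CO2; CellTiter-Fluor at 23hr, read 1hr later (fluorescence).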

[8] = Caspase-3/7 induction in CHO-K1 cells by small molecules, qHTS cell viability counter screen (AID 1346979); settings: CellTiter-Fluor fluorescence, 17 h; series mostly up to 92.4 µM; also: nearly all actives have a fitted effect of over 35% in size; also: potency is read from the fitted curve at half-maximal effect
Procedure, shortened: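 Cells (CHO-K1, wild type) are plated at 1,500 per well and incubated 5hr. Test compounds in DMSO are then pinned in, followed by 16hr at 37C and 5% CO2. Viability is read by CellTiter-Fluor fluorescence after 1hr.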

[9] = target: Cytochrome P450 2C19 (Homo sapiens) (UniProt P33261); assay: Cytochrome P450 Family 2 Subfamily C Member 19 (CYP2C19) small molecule antagonists: luciferase reporter qHTS assay (AID 1671197); settings: P450-Glo CYP2C19 enzyme, luciferin luminescence, 1 h; series mostly up to 115 µM; also: potency is read from the fitted curve at half-maximal effect; nearly all actives have a fitted effect of over 65% in size
UniProt P33261, sequence (P33261 whole entry, looked up): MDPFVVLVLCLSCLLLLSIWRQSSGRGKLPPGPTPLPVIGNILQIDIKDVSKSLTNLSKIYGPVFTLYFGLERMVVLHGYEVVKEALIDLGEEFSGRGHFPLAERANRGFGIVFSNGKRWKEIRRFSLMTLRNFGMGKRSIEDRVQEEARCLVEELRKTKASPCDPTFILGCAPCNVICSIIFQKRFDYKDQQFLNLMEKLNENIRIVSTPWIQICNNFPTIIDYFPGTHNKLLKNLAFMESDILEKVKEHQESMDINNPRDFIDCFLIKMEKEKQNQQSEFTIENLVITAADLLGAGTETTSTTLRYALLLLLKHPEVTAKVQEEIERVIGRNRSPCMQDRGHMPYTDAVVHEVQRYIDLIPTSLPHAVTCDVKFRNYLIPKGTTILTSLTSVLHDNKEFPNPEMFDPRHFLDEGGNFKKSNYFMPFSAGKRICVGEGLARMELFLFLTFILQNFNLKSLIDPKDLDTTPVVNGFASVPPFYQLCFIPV
Procedure, shortened: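 P450-Glo CYP2C19 screening system; proluciferin substrate; DMSO compound stocks; 10 min RT preincubation; NADPH regeneration, 1 h at 37C; luciferin detection reagent, 20 min RT; luminescence as RLU.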

[10] = Caspase-3/7 induction in HepG2 cells by small molecules, qHTS assay (AID 1346978); settings: HepG2 caspase-3/7 activation, Caspase-Glo luminescence, 17 h; series mostly up to 92.4 µM; also: % is scaled to controls: 0 for no effect and ±100 for the full control effect; nearly all actives have a fitted effect of over 15% in size
Procedure, shortened: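 Wild-type HepG2 cells (2,000/well) were settled 5 h at 37 C, 5% CO2, then exposed to compounds in DMSO for 17 h. Caspase-3/7 activity was read by luminescence 30 min after adding Caspase-Glo 3/7 reagent at room temperature.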

[11] = target: Nuclear receptor subfamily 1 group I member 2 (Homo sapiens) (UniProt O75469); assay: Human pregnane X receptor (PXR) activation by small molecules, qHTS assay (AID 1346985); settings: DPX-2 HepG2 CYP3A4-luciferase, 24 h; series mostly up to 38.3 µM; also: % is scaled to controls: 0 for no effect and ±100 for the full control effect; nearly all actives have a fitted effect of over 40% in size
Procedure, shortened: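 DPX-2 cells (HepG2 co-transfected with a PXR response element and a CYP3A4-promoter luciferase construct) were seeded at 2,000 per well, rested 5 hr at 37C, then exposed to DMSO-dissolved compounds for 24 hr. Activation was read as luciferase luminescence.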

[12] = target: Thyrotropin-releasing hormone receptor (Homo sapiens) (UniProt P34981); assay: qHTS assay to identify small molecule antagonists of the thyrotropin-releasing hormone receptor (TRHR) signaling pathway (AID 1346877; active = well fitted inhibition curve with a large enough effect in the repeat runs, not every such curve was filed as active; inconclusive = weak or mixed curves; also: potency is read from the fitted curve at half-maximal effect); settings: TRHR-HEK293, TRH-induced calcium fluorescence, antagonist mode; series mostly up to 51.3 µM
UniProt P34981, sequence (P34981 whole entry, looked up): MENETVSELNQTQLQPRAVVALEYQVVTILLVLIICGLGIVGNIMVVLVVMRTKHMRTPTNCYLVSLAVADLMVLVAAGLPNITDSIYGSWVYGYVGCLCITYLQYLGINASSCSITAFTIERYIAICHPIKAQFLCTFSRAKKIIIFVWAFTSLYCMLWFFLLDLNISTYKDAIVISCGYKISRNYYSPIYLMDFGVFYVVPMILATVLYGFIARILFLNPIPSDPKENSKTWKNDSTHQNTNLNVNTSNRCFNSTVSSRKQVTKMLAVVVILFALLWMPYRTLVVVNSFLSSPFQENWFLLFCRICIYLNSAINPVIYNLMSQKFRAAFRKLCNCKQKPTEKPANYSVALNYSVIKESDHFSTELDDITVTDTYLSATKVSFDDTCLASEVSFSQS
Procedure, shortened: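 Screening used HEK293 cells engineered with TRHR, with a brief 5 min room-temperature compound exposure preceding addition of TRH to 1 nM. The read-out was kinetic calcium-dye fluorescence, concentration-response from 15 doses in triplicate.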

[13] = target: Acetylcholinesterase (Homo sapiens) (UniProt P22303); assay: Acetylcholinesterase (AChE) small molecule antagonists: colormetric cell-based qHTS assay (AID 1347395; calls by dose curve; also: potency is read from the fitted curve at half-maximal effect; nearly all actives have a fitted effect of over 30% in size); settings: SH-SY5Y cells AChE activity, colorimetric (Ellman); series mostly up to 115 µM
UniProt P22303, sequence (P22303 whole entry, looked up): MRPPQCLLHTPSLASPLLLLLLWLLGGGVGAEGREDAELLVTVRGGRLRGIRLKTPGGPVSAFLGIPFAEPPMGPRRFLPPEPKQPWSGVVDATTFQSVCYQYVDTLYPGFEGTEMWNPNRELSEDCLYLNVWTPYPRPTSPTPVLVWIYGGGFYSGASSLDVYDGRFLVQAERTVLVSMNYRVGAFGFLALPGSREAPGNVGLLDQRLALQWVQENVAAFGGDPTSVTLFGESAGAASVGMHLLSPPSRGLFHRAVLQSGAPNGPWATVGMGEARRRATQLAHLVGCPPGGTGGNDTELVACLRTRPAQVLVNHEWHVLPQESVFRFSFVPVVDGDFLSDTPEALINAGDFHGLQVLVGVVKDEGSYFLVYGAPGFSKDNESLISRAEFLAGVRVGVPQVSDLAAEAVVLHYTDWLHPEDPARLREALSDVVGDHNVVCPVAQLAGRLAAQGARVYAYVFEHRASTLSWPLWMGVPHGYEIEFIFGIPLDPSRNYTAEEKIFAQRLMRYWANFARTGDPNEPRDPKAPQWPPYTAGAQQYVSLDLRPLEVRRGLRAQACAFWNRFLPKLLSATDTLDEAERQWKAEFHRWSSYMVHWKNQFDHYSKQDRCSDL
Procedure, shortened: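 Colorimetric read-out: DTNB detects thiocholine released when cellular AChE in SH-SY5Y cells hydrolyses acetylthiocholine. Cells attached overnight, received compound for 30 min at 37 C, then substrate mix for 90 min at 37 C.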

[14] = target: Acetylcholinesterase (Homo sapiens) (UniProt P22303); assay: Acetylcholinesterase (AChE) small molecule antagonists: fluorescence cell-based qHTS assay (AID 1347398; calls by dose curve; also: nearly all actives have a fitted effect of over 50% in size; also: potency is read from the fitted curve at half-maximal effect); settings: SH-SY5Y cells; Potency: AChE activity; series mostly up to 115 µM
Procedure, shortened: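 Thiocholine generated from acetylthiocholine by SH-SY5Y cell AChE is detected with Thiolite Green (Ex/Em 490/520 nm) after 40 min at room temperature, following 30 min compound pretreatment at 37 C.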
Tags tell the direction and shape of the fitted curve or compound fluorescence and quenching.

c1ccc2c(c1)Nc1ccccc1S2
Potency [1]: inconclusive: 30.9 µM [cytotoxic, partial curve, poor fit] | activation [2]: inconclusive: 2.36% | activity, negative = inhibition [3]: inconclusive: -2.95% | Potency [4]: inconclusive: 21.7 µM [cytotoxic, partial curve] | Potency [5]: active: 27.3 µM and inconclusive: 33.5 µM [activator, partial curve, poor fit] | Potency [6]: inconclusive: 32.6 µM [inhibitor]

COCCOCCO
Potency [1]: inconclusive: 0.616 µM [rising, partial curve, poor fit] | activity, negative = inhibition [3]: inconclusive: 4.55% | Potency [7]: inactive | Potency [8]: inconclusive: 68.6 µM [cytotoxic] | Potency [9]: inconclusive: 89.4 µM [inhibitor]

C=CC(C)=O
Potency [1]: inactive | Potency [7]: inactive | Potency [8]: inactive | Potency [6]: inactive | Potency [9]: inconclusive: 87.3 µM [inhibitor, single point]

Cc1cc(Cl)ccc1N
Potency [1]: inactive | activity, negative = inhibition [3]: inconclusive: 5.27% | Potency [7]: inactive | Potency [10]: inactive

Cc1ccc(N=CN(C)C=Nc2ccc(C)cc2C)c(C)c1
Potency [1]: inconclusive: 61.9 µM [cytotoxic, single point] | activity, negative = inhibition [3]: inconclusive: -6.87% and inconclusive: -7.72% | Potency [7]: inconclusive: 70.8 µM [cytotoxic, single point] and inconclusive: 68.5 µM [cytotoxic, single point] | Potency [8]: inconclusive: 68.9 µM [cytotoxic, single point] and inconclusive: 68.5 µM [cytotoxic, single point] | Potency [11]: inactive | Potency [9]: inconclusive: 89.8 µM [inhibitor, single point]

Cc1cc(C)c(C(=O)P(=O)(c2ccccc2)c2ccccc2)c(C)c1
Potency [1]: inconclusive: 49 µM [cytotoxic, partial curve] | Potency [12]: inconclusive: 38 µM [inhibitor, single point] | activity, negative = inhibition [3]: inconclusive: -13.4% | Potency [8]: inconclusive: 68.6 µM [cytotoxic, single point] | Potency [4]: inconclusive: 68.6 µM [cytotoxic, single point] | Potency [6]: inconclusive: 71 µM [inhibitor, partial curve]

CCOCn1c(-c2ccc(Cl)cc2)c(C#N)c(Br)c1C(F)(F)F
Potency [1]: inconclusive: 5.49 µM [cytotoxic, partial curve] | Potency [2]: inconclusive: 7.76 µM [rising, full curve] | Potency [3]: inconclusive: 4.36 µM [full curve] | Potency [8]: active: 2.73 µM | Potency [4]: inconclusive: 1.93 µM [cytotoxic, full curve]

C[C@H]1[C@H](c2ccc(Cl)cc2)SC(=O)N1C(=O)NC1CCCCC1
Potency [1]: inactive | activity, negative = inhibition [3]: inconclusive: -32.6% | Potency [7]: inconclusive: 68.6 µM [cytotoxic, single point] | Potency [8]: inconclusive: 68.6 µM [cytotoxic, single point]

CC(C)(C)c1ccc(CSc2cnn(C(C)(C)C)c(=O)c2Cl)cc1
Potency [1]: inactive | activity, negative = inhibition [3]: inconclusive: -31.4% | Potency [4]: inconclusive: 0.611 µM [cytotoxic, full curve, poor fit] | Potency [6]: inconclusive: 79.6 µM [inhibitor, partial curve, poor fit]

N#CCCl
Potency [1]: inactive

COc1ccc(N)cc1N
Potency [1]: active: 7.14 µM and active: 11.8 µM | Potency [7]: inconclusive: 37 µM [cytotoxic, single point] | Potency [8]: active: 22.4 µM and active: 29.4 µM | Potency [4]: inconclusive: 23.4 µM [cytotoxic, partial curve] | Potency [13]: inconclusive: 14.6 µM [inhibitor, partial curve] | Potency [14]: inconclusive: 41.2 µM [inhibitor, partial curve] and inactive | Potency [9]: active: 732 nM and active: 3.83 µM

CC(C)(O)C(=O)Nc1ccc([N+](=O)[O-])c(C(F)(F)F)c1
Potency [1]: inactive | Potency [2]: inconclusive: 39.7 µM [rising, partial curve] | Potency [3]: inconclusive: 62.9 µM [rising, partial curve, poor fit] | activity, negative = inhibition [3]: inconclusive: -17.2% [at 35.3 µM] | Potency [7]: inconclusive: 62.4 µM [cytotoxic] and inconclusive: 56.2 µM [cytotoxic, partial curve, poor fit] | Potency [8]: active: 44.2 µM and active: 39.8 µM | Potency [4]: inconclusive: 22.4 µM [cytotoxic, single point] | Potency [5]: active: 27.9 µM and active: 25.1 µM | Potency [6]: inconclusive: 64.6 µM [inhibitor, partial curve] and inconclusive: 41.2 µM [inhibitor, partial curve, poor fit]
